# Data reported in publication PMC5836133.
# Some of the results follow. At the low end of the ranking the order means little.
# Tested on: T1, GST-NbGlk1(82-244)
# T1 sequence: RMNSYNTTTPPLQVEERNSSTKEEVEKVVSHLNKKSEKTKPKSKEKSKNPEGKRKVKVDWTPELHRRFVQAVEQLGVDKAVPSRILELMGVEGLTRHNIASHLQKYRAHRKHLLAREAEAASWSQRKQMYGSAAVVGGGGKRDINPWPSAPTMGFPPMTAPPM
# Assay: protein-binding microarray;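 further: rank-based score ranging −0.5 to +0.5 with E above 0.45 taken as significant binding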
# Conditions: NbGlk1 is a Golden2-like transcription factor of Nicotiana benthamiana; high values mean tight binding; most listed sequences are background and not binding sites; double strand, one strand shown
row,Sequence,binding signal
1,ATGAACGC,-0.118 E-score
2,AAGCAAGA,0.107 E-score
3,AATGAGTC,0.00779 E-score
4,AGCTCCTG,-0.234 E-score
5,AACCGCGA,0.036 E-score
6,AACATGAC,-0.0805 E-score
7,AGTATCGC,0.156 E-score
8,AAACGTTT,0.0762 E-score
9,AACAATAG,0.104 E-score
10,AATCGTTC,0.0933 E-score
11,AACTTCAG,0.00867 E-score
12,ATTCTAAG,0.193 E-score
13,AACTCATT,-0.0362 E-score
14,AGTACTAA,-0.0591 E-score
15,ACGGTGCC,-0.292 E-score
16,AGAGATTC,0.434 E-score
17,AATGTCAG,-0.0343 E-score
18,ATGGCCAC,-0.144 E-score
19,AACTGAGG,-0.0452 E-score
20,CAAGACCG,-0.218 E-score
21,ATAAGCAG,-0.045 E-score
22,CAACTGGA,-0.123 E-score
23,AACGTCGG,-0.0846 E-score
24,ATGTCAGA,-0.0173 E-score
25,ACAAAACA,0.171 E-score

row,Sequence,binding signal
1,AAACTCCA,-0.225 E-score
2,AACAGTTG,0.00335 E-score
3,CAAGGCGC,-0.126 E-score
4,CACCCCAC,-0.142 E-score
5,CAATCCGC,0.305 E-score
6,ATCCTGAG,0.23 E-score
7,AACGGTGA,0.0509 E-score
8,AACGGGGG,-0.105 E-score
9,AAAAACGT,-0.0212 E-score
10,ATTAGAAG,0.0962 E-score
11,ATTGACCG,-0.0574 E-score
12,AATCCGAT,0.432 E-score
13,ACGGGTCC,-0.326 E-score
14,CAATCTAC,0.341 E-score
15,ACTAGTTC,-0.14 E-score
16,AGGGATTC,0.359 E-score
17,AGTAACTG,0.0034 E-score
18,AGCGGTCA,-0.13 E-score
19,CAGACGCC,-0.259 E-score
20,ATCCTGCA,0.261 E-score
21,CACCGCCC,-0.135 E-score
22,ATTTAACA,0.19 E-score
23,ACGGCGCA,-0.0754 E-score
24,ATCGACTA,0.0618 E-score
25,ATCGGCGC,0.071 E-score

row,Sequence,binding signal
1,ATAAGTCA,-0.0921 E-score
2,AACGGTTA,-0.145 E-score
3,AGATGGCG,-0.00935 E-score
4,AGCGCATG,-0.211 E-score
5,AGCCAGCG,-0.13 E-score
6,AACAGAGC,-0.134 E-score
7,AAAGTCAC,-0.221 E-score
8,ATCTGCGG,0.198 E-score
9,ACTATCAC,0.0553 E-score
10,AGGTGCTA,-0.157 E-score
11,ATGGCATA,-0.0625 E-score
12,CACGCGGC,-0.104 E-score
13,AAATACTA,0.149 E-score
14,AAGAGTGC,-0.0963 E-score
15,ACAGCAGA,0.0678 E-score
16,AAAAACGG,-0.0992 E-score
17,ATCTGCAA,0.317 E-score
18,ATGGGAAC,-0.131 E-score
19,ATATCACA,0.369 E-score
20,ACAGGTCT,-0.142 E-score
21,AGTTTGAG,0.0313 E-score
22,AAAAACGA,0.0419 E-score
23,AAATCGGA,0.303 E-score
24,ATGTTCCA,0.0397 E-score
25,AGTTCACA,0.0163 E-score

row,Sequence,binding signal
1,AACAATCC,0.244 E-score
2,AGTTTGCG,-0.143 E-score
3,CAGAAGAC,-0.0624 E-score
4,AAGGGCTC,-0.265 E-score
5,ACCAACAA,0.069 E-score
6,AGCTAAAG,-0.139 E-score
7,ACAGTTGC,-0.16 E-score
8,AACCTTCC,-0.128 E-score
9,AATCTTCC,0.361 E-score
10,AGTGGCTA,-0.17 E-score
11,CAAGCGGC,-0.27 E-score
12,AATCACAT,0.265 E-score
13,CAAAGCCG,-0.0393 E-score
14,ATTAATTA,0.0969 E-score
15,AAAGGGAG,-0.153 E-score
16,CACCTAGC,-0.277 E-score
17,AAAATTAC,0.203 E-score
18,ATCCCTCG,0.139 E-score
19,AAGTTTCC,-0.0482 E-score
20,ATATCAGG,0.305 E-score
21,AAGGATCA,0.0429 E-score
22,AGGTACTC,-0.202 E-score
23,ACGTCGAT,0.11 E-score
24,AGTGTAGA,0.0376 E-score
25,AATGACCT,-0.239 E-score

row,Sequence,binding signal
1,ACGCTAAC,-0.116 E-score
2,CAAAAGTA,-0.0253 E-score
3,AATGCTTC,-0.0248 E-score
4,ACTCACAA,-0.0736 E-score
5,ACACGCGC,-0.193 E-score
6,AAACCTAG,0.0452 E-score
7,AACAGAGG,-0.232 E-score
8,ATCTACGG,0.195 E-score
9,ATCCGGCA,0.253 E-score
10,ACTTACTA,0.0743 E-score
11,AACTATGG,-0.0971 E-score
12,ACCCTACC,-0.133 E-score
13,AATGATTA,0.123 E-score
14,AGCTGGGA,-0.0779 E-score
15,CAGACCTC,-0.138 E-score
16,AGGTGACG,-0.0523 E-score
17,ACCACTTG,-0.0825 E-score
18,AGTCCCCG,-0.329 E-score
19,AGGATAAC,0.0961 E-score
20,AACGCCCA,-0.122 E-score
21,AATCCATC,0.367 E-score
22,AAGCACAA,-0.0466 E-score
23,AACCTGCC,-0.21 E-score
24,AGGCAATA,0.0249 E-score
25,ATGGCCGA,-0.187 E-score

row,Sequence,binding signal
1,ACCCTAAC,-0.101 E-score
2,AAATCGTG,0.365 E-score
3,ACAAGATA,0.322 E-score
4,AAAAGATC,0.301 E-score
5,ATTACGTC,0.277 E-score
6,ATGACCCA,-0.165 E-score
7,ACCAAACA,-0.0748 E-score
8,AGCACTCG,-0.151 E-score
9,AGGCGACC,-0.239 E-score
10,ATATGCCG,0.152 E-score
11,AGGTGCAC,-0.196 E-score
12,AAACTACG,0.0766 E-score
13,ACGCTGAT,0.235 E-score
14,AAAACCCG,0.0568 E-score
15,CACCAATC,0.0579 E-score
16,AGCTGCAT,-0.213 E-score
17,AGTACCAC,-0.153 E-score
18,ATAAGCGA,0.0772 E-score
19,AAAGCTCA,-0.115 E-score
20,AGTACATA,0.0676 E-score
21,ACGGGACC,-0.264 E-score
22,AGCCTCAC,-0.133 E-score
23,ACTCGCTG,-0.0819 E-score
24,AGGGAGAA,-0.201 E-score
25,AGTCGCGG,-0.0793 E-score

row,Sequence,binding signal
1,AATAGCTG,-0.131 E-score
2,ACATAAGG,-0.105 E-score
3,AAAATGCG,0.0705 E-score
4,ATAGAGCC,-0.219 E-score
5,CAACGTGG,-0.143 E-score
6,AATTCTTA,0.185 E-score
7,ACGCATAA,0.00722 E-score
8,AACGCGCT,-0.0927 E-score
9,ACCATAGA,0.00772 E-score
10,ACGATCAT,0.116 E-score
11,AATACCTG,0.0297 E-score
12,ATGGACTA,-0.0804 E-score
13,AAGAATAA,0.165 E-score
14,ACACGCCG,-0.13 E-score
15,AGCATTAT,0.0451 E-score
16,AGCTTAAT,-0.0746 E-score
17,CACGTGTA,0.0674 E-score
18,ATGATTCG,0.199 E-score
19,AGTTAGTA,0.157 E-score
20,AGTAAGGC,-0.186 E-score
21,AATACATT,0.142 E-score
22,ACGTGTTC,-0.174 E-score
